Measurements as given in the supplement of paper PMC3334620.
In all, about 33,000 sequences were measured (“E-score (-0.5 to 0.5)”: median about -0.056, highest 2% from about 0.38 on). The list shows a part of the results.

Target: Stb4 (UniProt P50104)
Assay: PBM E-score (8-mer binding enrichment) (E-score (-0.5 to 0.5)); higher = stronger / more preferred TF binding; most listed sequences are background and not binding sites
Conditions: protein concentration: 200 nM; construct: GST-DNA-binding domain
In short: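 The E-score, a modified Wilcoxon-Mann-Whitney statistic, was computed by the Universal PBM Analysis Suite for every ungapped eight-base word pooled with its reverse complement. Scans behind it were normalised with masliner after bound GST-tagged yeast transcription factors were detected with fluorescent anti-GST. The proteins, at about 100-200 nM, had been applied to universal all-10-mer Agilent arrays made double-stranded by primer extension.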

Row | Sequence | PBM E-score
1 | CAACCTGC | 0.0732
2 | ACTACCGC | -0.0223
3 | ACCGCGGC | 0.193
4 | CCCTTCGG | 0.401
5 | AAGGCTCG | 0.0877
6 | TGCCTCAA | 0.0783
7 | AGACTCCC | -0.0278
8 | CGCGATCA | -0.0099
9 | CCTATTAC | -0.18
10 | GCGAATGA | 0.0949
11 | ACGTTTCT | -0.158
12 | AATCCAAC | -0.139
13 | CTCTCCAC | -0.347
14 | CACCTCTG | -0.221
15 | ACGACCCT | -0.138
16 | AGGTGGTA | -0.0275
17 | CGACGAAC | 0.156
18 | ACTTTCTG | 0.127
19 | CGCTTATA | 0.00226
20 | CGTCTTTC | 0.0162
21 | CTGTGTCA | -0.0509
22 | AGATGCCC | -0.0342
23 | AAGCAAAG | -0.16
24 | GCAGTAGA | -0.253
25 | AGGCTCCC | -0.0221

Row | Sequence | PBM E-score
26 | CAGATCTC | -0.0122
27 | ATTTAGGC | -0.128
28 | AGCACACC | -0.0546
29 | AACCAAAC | -0.106
30 | ACCAAAAA | 0.00726
31 | GAGTGAAA | -0.0195
32 | GACGTCTC | -0.215
33 | ATCGTGCC | 0.162
34 | TCCAACCA | -0.117
35 | ATCTAGGG | -0.336
36 | GCCGAGGC | 0.436
37 | ATTTGGGC | -0.166
38 | CGTAGTTC | -0.0215
39 | GGTTAAAC | 0.0999
40 | AGCGAGAT | -0.00096
41 | CGAGCACG | 0.183
42 | GCAAACCA | -0.187
43 | CTTAAGGC | -0.0873
44 | ATCGCTTC | 0.0204
45 | ACCCCGGT | 0.135
46 | ATCCTAGG | -0.0251
47 | CCTACAGA | -0.172
48 | AATGGGGT | -0.142
49 | CTGGAGCC | -0.0101
50 | GAGCGTAC | -0.091

Row | Sequence | PBM E-score
51 | ATTGCCAC | -0.182
52 | AGCGATTA | -0.0466
53 | GAACGTTC | 0.0157
54 | AGCCGAAG | 0.391
55 | CAGGACCA | -0.103
56 | ATCCATGA | -0.144
57 | CCGTGGCC | 0.124
58 | CTGAAAAG | -0.0916
59 | CTGAGCAA | -0.195
60 | CCTTGCAC | -0.0446
61 | CATGCCTC | 0.028
62 | AGCCTTCG | 0.0677
63 | CATGCTCA | -0.152
64 | CTAGCGGC | -0.0333
65 | GTAGCTAA | -0.0565
66 | CAGGCAGA | -0.0815
67 | AGAGGGTG | -0.141
68 | GCCGCGTA | 0.141
69 | AACTGGTC | 0.0748
70 | AGTAGGCC | -0.209
71 | ATGCGCAA | -0.0689
72 | ATTATCCC | 0.0679
73 | ACCAGCTA | -0.216
74 | ACTGCCCA | -0.178
75 | CGTGAAAG | -0.0887

Row | Sequence | PBM E-score
76 | CCATAGGG | -0.157
77 | CTAAGTGC | -0.0993
78 | TGCAAGCA | -0.123
79 | CGTCATTC | -0.00028
80 | AGTCGTCG | -0.00728
81 | AGATGATC | 0.0878
82 | GTCTGCGA | -0.324
83 | GCCTCAAA | 0.0154
84 | AACCAAGG | -0.134
85 | AAAGGCGT | -0.0826
86 | CTATGCCA | -0.291
87 | GCTAAACA | -0.0519
88 | CTGCAGGC | -0.0808
89 | CAACCACG | -0.132
90 | GGTTATAA | 0.197
91 | CGAGGATA | 0.0376
92 | AAGCCTAT | -0.162
93 | GAAGCGAC | -0.0222
94 | ATCGTGGA | -0.0724
95 | AACTTGAA | 0.0409
96 | CTTTCTGA | -0.25
97 | AAATCACC | 0.103
98 | AATCCGCT | 0.0362
99 | GCACAGGA | -0.033
100 | GTCAAAGA | -0.142

Row | Sequence | PBM E-score
101 | CCCTGCGA | -0.258
102 | CGTCGCAA | -0.124
103 | CGTCGGCA | 0.38
104 | CGGCGTGA | 0.111
105 | CCTACCAA | -0.0462
106 | AGGGTGCA | -0.141
107 | CTCGGTTC | 0.361
108 | AAGTATTC | 0.0153
109 | AGAGTGCT | -0.114
110 | AACGCCTT | 0.0897
111 | CAGCTCAA | -0.109
112 | ATTTGGCC | -0.0493
113 | CGGCGTTA | 0.198
114 | ATCATAAT | -0.124
115 | GGATATAC | 0.26
116 | TACGTAGA | -0.0695
117 | ACAGCTCA | -0.338
118 | CATTCCGC | 0.175
119 | ATAGACAG | -0.124
120 | GATAGACC | 0.00568
121 | CACCAGGC | -0.141
122 | ATAAAAAC | -0.00099
123 | CACCTAAG | -0.218
124 | TATAAGGA | 0.00377
125 | TAAGTAGA | -0.103

Row | Sequence | PBM E-score
126 | ATTGAGCC | -0.0721
127 | CAGTTTGC | -0.0669
128 | CATAAAGG | -0.055
129 | CCTCCTAA | -0.203
130 | CAGTCTCC | 0.071
131 | ATTCACGC | -0.17
132 | ATGATGCC | 0.036
133 | AACCGGGC | 0.178
134 | GAAGCCCA | -0.1
135 | GATGTACC | -0.0638
136 | GACTACGA | -0.124
137 | AGCTGTAA | -0.361
138 | CCGGTGCA | 0.225
139 | TATGGTCA | -0.24
140 | CCGGCAGG | 0.244
141 | CTCATATC | -0.0509
142 | CCTTTGAG | -0.149
143 | CCCTTCAG | -0.136
144 | CACCGATA | 0.0444
145 | ATCTCAGA | -0.0812
146 | AGTTATGG | -0.209
147 | AATGCAGT | -0.162
148 | CCATGTGC | -0.00984
149 | AGCCAGGG | -0.22
150 | ACTGGATG | -0.282

Row | Sequence | PBM E-score
151 | AGCCTCTC | -0.189
152 | CCTGCGAC | -0.0924
153 | CAGCAGCG | -0.141
154 | CCACACCG | 0.0242
155 | AGTTTAAA | 0.124
156 | AGATGTTG | 0.0107
157 | ATGAGGGA | -0.254
158 | ACAGTTAT | -0.0952
159 | AGCTAGCA | -0.0474
160 | AGGTCGGG | 0.2
161 | GCAGAAGC | -0.0858
162 | GACGCTCA | -0.154
163 | GACCCCAA | -0.101
164 | AAGACATG | -0.157
165 | CAGCGCAA | -0.117
166 | GGCCCAAA | 0.122
167 | ACTGGACC | -0.00429
168 | ATCATGAA | -0.126
169 | GAATGTGC | -0.11
170 | CGTAAGCA | -0.0963
171 | AGATAAAC | 0.00284
172 | CAGTCCAG | -0.185
173 | CGGGCCAG | 0.131
174 | CTTGGGGC | -0.131
175 | AAGCGCTA | -0.0929

Row | Sequence | PBM E-score
176 | AAGCGTAT | -0.119
177 | AATTAACT | -0.0555
178 | CTCTACGC | -0.192
179 | CAGCCTAC | -0.0798
180 | CGCGGGCA | 0.171
181 | CCTCGCCG | 0.0999
182 | ACGGGCGC | 0.0987
183 | AAAGTCAG | -0.168
184 | CGCATTAG | -0.0163
185 | CTTACGAC | -0.147
186 | CGTGCGAG | 0.0424
187 | AAAACAAG | -0.222
188 | CAAACTGC | -0.0742
189 | AGCACGTA | -0.0824
190 | GCCCCTAA | -0.127
191 | CAGTGTGG | -0.271
192 | ACGCGTAC | -0.149
193 | GATACGCC | 0.156
194 | TCACATAA | -0.137
195 | ACAATGTA | 0.0811
196 | ATCGTTAC | -0.164
197 | GCCCGAGC | 0.316
198 | GAGAGTAA | 0.101
199 | ATAGGTTG | -0.194
200 | ACCACGCT | -0.0647

Row | Sequence | PBM E-score
201 | ATATGCTG | -0.164
202 | CAAGATGC | 0.0665
203 | GCAATACA | 0.0661
204 | GCCCGTTA | 0.0448
205 | CCCCCATA | -0.245
206 | CAAGTATC | -0.153
207 | GCTTCGTA | -0.25
208 | CATCAGGC | -0.149
209 | ACATCGCA | 0.00514
210 | ATAAAATC | 0.116
211 | ACGAGGTG | -0.0198
212 | AGTCACTA | -0.158
213 | AATTCGTG | -0.153
214 | ATGCACAC | -0.108
215 | CAAAGCGA | -0.138
216 | CCTTGCTC | -0.054
217 | CATGATAG | -0.206
218 | CGAACTTC | -0.0313
219 | CTTTGTTC | 0.153
